# Data from patent US7423058B2, “Inhibitors of hepatitis C virus NS3 protease” (Schering Corporation, priority 2004, dated 2008).
# Biological target: Recombinant heterodimeric HCV NS3/NS4A protease (strain 1a) (Hepatitis C virus genotype 1a, UniProt P27958)
# Experiment: Spectrophotometric assay for HCV protease inhibitory activity (chromogenic ester substrates)
# Type: biochemical
# Details: Table 1: Ketones; read-out: Ki* Range
# From the text: The present invention relates to novel HCV protease inhibitors. This utility can be manifested in their ability to inhibit the HCV NS2/NS4a serine protease.
# Assay for HCV Protease Inhibitory Activity:
# Spectrophotometric Assay: Spectrophotometric assay for the HCV serine protease can be performed on the inventive compounds by following the procedure described by R. Zhang et al, Analytical Biochemistry, 270 (1999) 268-275, the disclosure of which is incorporated herein by reference. The assay based on the proteolysis of chromogenic ester substrates is suitable for the continuous monitoring of HCV NS3 protease activity. The substrates are derived from the P side of the NS5A-NS5B junction sequence (Ac-DTEDVVX(Nva), where X=A or P) whose C-terminal carboxyl groups are esterified with one of four different chromophoric alcohols (3- or 4-nitrophenol, 7-hydroxy-4-methyl-coumarin, or 4-phenylazophenol). Illustrated below are the synthesis, characterization and application of these novel spectrophotometric ester substrates to high throughput screening and detailed kinetic evaluation of HCV NS3 protease inhibitors. Materials and Methods:
# Materials: Chemical reagents for assay related buffers are obtained from Sigma Chemical Company (St. Louis, Mo.). Reagents for peptide synthesis were from Aldrich Chemicals, Novabiochem (San Diego, Calif.), Applied Biosystems (Foster City, Calif.) and Perseptive Biosystems (Framingham, Mass.). Peptides are synthesized manually or on an automated ABI model 431A synthesizer (from Applied Biosystems). UVNIS Spectrometer model LAMBDA 12 was from Perkin Elmer (Norwalk, Conn.) and 96-well UV plates were obtained from Corning (Corning, N.Y.). The prewarming block can be from USA Scientific (Ocala, Fla.) and the 96-well plate vortexer is from Labline Instruments (Melrose Park, Ill.). A Spectramax Plus microtiter plate reader with monochrometer is obtained from Molecular Devices (Sunnyvale, Calif.).
# Protein concentrations are determined by the Biorad dye method using recombinant HCV protease standards previously quantified by amino acid analysis. Prior to assay initiation, the enzyme storage buffer (50 mM sodium phosphate pH 8.0, 300 mM NaCl, 10% glycerol, 0.05% lauryl maltoside and 10 mM DTT) is exchanged for the assay buffer (25 mM MOPS pH 6.5, 300 mM NaCl, 10% glycerol, 0.05% lauryl maltoside, 5 μM EDTA and 5 μM DTT) utilizing a Biorad Bio-Spin P-6 prepacked column. Substrate Synthesis and Purification: The synthesis of the substrates is done as reported by R. Zhang et al, (ibid.) and is initiated by anchoring Fmoc-Nva-OH to 2-chlorotrityl chloride resin using a standard protocol (K. Barlos et al, Int. J. Pept. Protein Res., 37 (1991), 513-520). The peptides are subsequently assembled, using Fmoc chemistry, either manually or on an automatic ABI model 431 peptide synthesizer. […] The combined filtrate and DCM wash is evaporated azeotropically (or repeatedly extracted by aqueous Na2CO3 solution) to remove the acid used in cleavage. The DCM phase is dried over Na2SO4 and evaporated.
# The ester substrates are assembled using standard acid-alcohol coupling procedures (K. Holmber et al, Acta Chem. Scand., B33 (1979) 410-412). Peptide fragments are dissolved in anhydrous pyridine (30-60 mg/ml) to which 10 molar equivalents of chromophore and a catalytic amount (0.1 eq.) of para-toluenesulfonic acid (pTSA) were added. Dicyclohexylcarbodiimide (DCC, 3 eq.) is added to initiate the coupling reactions. Product formation is monitored by HPLC and can be found to be complete following 12-72 hour reaction at room temperature. Pyridine solvent is evaporated under vacuum and further removed by azeotropic evaporation with toluene.
row,SMILES,pKi
1,C=CCNC(=O)C(=O)C(CCC)NC(=O)[C@@H]1[C@@H]2[C@H](CN1C(=O)[C@@H](NC(=O)N[C@H](C(=O)c1ccccc1OC)C(C)C)C(C)(C)C)C2(C)C (stereo partly shown) [compound 4083],> 7.12
2,CC(C)[C@@H](CC(=O)C(C)(C)C)NC(=O)N[C@H](C(=O)N1C[C@H]2[C@@H]([C@H]1C(=O)NC(CC1CC1)C(=O)C(N)=O)C2(C)C)C(C)(C)C (stereo partly shown) [compound 4143],> 7.12
3,CCCC(NC(=O)[C@@H]1[C@@H]2[C@H](CN1C(=O)[C@@H](NC(=O)N[C@H](C(=O)C1CC1)C1CCCCC1)C(C)(C)C)C2(C)C)C(=O)C(=O)NC (stereo partly shown) [compound 4131],> 7.12
4,C=CCNC(=O)C(=O)C(CCC)NC(=O)[C@@H]1[C@@H]2[C@H](CN1C(=O)[C@@H](NC(=O)N[C@H](C(=O)C(C)(C)C)C(C)C)C(C)(C)C)C2(C)C (stereo partly shown) [compound 4137],> 7.12
5,CC(C)[C@H](NC(=O)N[C@H](C(=O)N1C[C@H]2[C@@H]([C@H]1C(=O)NC(CC1CC1)C(=O)C(N)=O)C2(C)C)C(C)(C)C)C(=O)c1ccc(OCc2ccccc2)cc1 (stereo partly shown) [compound 4121],> 7.12
6,C=C(F)CNC(=O)C(=O)C(CCC)NC(=O)[C@@H]1[C@@H]2[C@H](CN1C(=O)[C@@H](NC(=O)N[C@H](C(=O)C1CC1)C1CCCCC1)C(C)(C)C)C2(C)C (stereo partly shown) [compound 4164],> 7.12
7,CC(C)C(=O)[C@@H](NC(=O)N[C@H](C(=O)N1C[C@H]2[C@@H]([C@H]1C(=O)NC(CC1CC1)C(=O)C(N)=O)C2(C)C)C(C)(C)C)C1CCCCC1 (stereo partly shown) [compound 4047],> 7.12
8,CC(C)(C)[C@H](NC(=O)NC1(CC(=O)C2CC2)CCCCC1)C(=O)N1C[C@H]2[C@@H]([C@H]1C(=O)NC(CC1CC1)C(=O)C(N)=O)C2(C)C (stereo partly shown) [compound 4112],> 7.12
9,CC(C)(C)[C@H](NC(=O)N[C@H](C(=O)N1C[C@H]2[C@@H]([C@H]1C(=O)NC(CC1CC1)C(=O)C(N)=O)C2(C)C)C(C)(C)C)C(=O)c1ccccc1 (stereo partly shown) [compound 4044],> 7.12
10,C=CCNC(=O)C(=O)C(CCC)NC(=O)[C@@H]1[C@@H]2[C@H](CN1C(=O)[C@@H](NC(=O)N[C@H](C(=O)c1ccc(C(F)(F)F)cc1)C(C)C)C(C)(C)C)C2(C)C (stereo partly shown) [compound 4177],6.60 to 7.12
11,CC(C)[C@H](NC(=O)N[C@H](C(=O)N1C[C@H]2[C@@H]([C@H]1C(=O)NC(CC1CC1)C(=O)C(N)=O)C2(C)C)C(C)(C)C)C(=O)c1cccs1 (stereo partly shown) [compound 4026],> 7.12
12,C=CCNC(=O)C(=O)C(CCC)NC(=O)[C@@H]1[C@@H]2[C@H](CN1C(=O)[C@@H](NC(=O)N[C@H](CC(=O)c1ccccn1)C(C)C)C(C)(C)C)C2(C)C (stereo partly shown) [compound 4175],6.60 to 7.12

# Same assay, conditions: Table 3, Esters; read-out: Ki* Range
row,SMILES,pKi
1,CC(C)OC(=O)[C@@H](NC(=O)N[C@H](C(=O)N1C[C@H]2[C@@H]([C@H]1C(=O)NC(CC1CCC1)C(=O)C(N)=O)C2(Cl)Cl)C1CCCCC1)C(C)(C)C (stereo partly shown) [compound 4357],> 7.12
2,C=CCNC(=O)C(=O)C(CC1CC1)NC(=O)[C@@H]1[C@@H]2[C@H](CN1C(=O)[C@@H](NC(=O)N[C@H](C(=O)OC(C)(C)C)C(C)C)C1(C)CCCCC1)C2(C)C (stereo partly shown) [compound 4526],> 7.12
3,CC(C)(C)C[C@H](NC(=O)N[C@H](C(=O)N1C[C@H]2[C@@H]([C@H]1C(=O)NC(CC1CC1)C(=O)C(N)=O)C2(C)C)C(C)(C)C)C(=O)OCc1ccccc1 (stereo partly shown) [compound 4622],6.60 to 7.12
4,CC(C)OC(=O)[C@H](NC(=O)N[C@H](C(=O)N1C[C@H]2[C@@H]([C@H]1C(=O)NC(CC1CCC1)C(=O)C(N)=O)C2(C)C)C(C)(C)C)C(C)(C)C (stereo partly shown) [compound 4336],> 7.12
5,CC1(C)[C@@H]2[C@@H](C(=O)NC(CC3CCC3)C(=O)C(N)=O)N(C(=O)[C@@H](NC(=O)NC3(C(=O)OCc4ccccc4)CCCC3)C3Cc4ccccc4C3)C[C@@H]21 (stereo partly shown) [compound 4591],6.60 to 7.12
6,COc1ccc(COC(=O)[C@@H](NC(=O)N[C@H](C(=O)N2C[C@H]3[C@@H]([C@H]2C(=O)NC(CC2CC2)C(=O)C(N)=O)C3(C)C)C(C)(C)C)C(C)C)cc1 (stereo partly shown) [compound 4347],> 7.12
7,C#CCCNC(=O)C(=O)C(CCCC)NC(=O)[C@@H]1[C@@H]2[C@H](CN1C(=O)[C@@H](NC(=O)N[C@H](C(=O)OCC1CC1)C(C)C)C(C)(C)C)C2(C)C (stereo partly shown) [compound 4629],6.60 to 7.12
8,CC(C)(C)[C@H](NC(=O)NC1(C(=O)OCc2ccc3ccccc3c2)CCCCC1)C(=O)N1C[C@H]2[C@@H]([C@H]1C(=O)NC(CC1CCC1)C(=O)C(N)=O)C2(C)C (stereo partly shown) [compound 4645],< 6.60
9,CC(C)[C@H](NC(=O)N[C@H](C(=O)N1C[C@H]2[C@@H]([C@H]1C(=O)NC(CC1CC1)C(=O)C(N)=O)C2(C)C)C(C)(C)C)C(=O)OC(C)(C)C(F)(F)F (stereo partly shown) [compound 4331],> 7.12
10,COC(=O)C1(NC(=O)N[C@H](C(=O)N2C[C@H]3[C@@H]([C@H]2C(=O)NC(CC2CC2)C(=O)C(N)=O)C3(Cl)Cl)C(C)(C)C)CCCC1 (stereo partly shown) [compound 4594],6.60 to 7.12
11,CC(C)(C)OC(=O)[C@H](NC(=O)N[C@H](C(=O)N1C[C@H]2[C@@H]([C@H]1C(=O)NC(CC1CCC1)C(=O)C(N)=O)C2(C)C)C1CCCCC1)C(C)(C)C (stereo partly shown) [compound 4313],> 7.12
12,CC(C)[C@H](NC(=O)N[C@H](C(=O)N1C[C@H]2[C@@H]([C@H]1C(=O)NC(CC1CC1)C(=O)C(N)=O)C2(C)C)C(C)(C)C)C(=O)OC1CCCC1 (stereo partly shown) [compound 4424],> 7.12
13,C=CCNC(=O)C(=O)C(CCCC)NC(=O)[C@@H]1[C@@H]2[C@H](CN1C(=O)[C@@H](NC(=O)N[C@H](C(=O)OC(C)C1CC1)C(C)C)C(C)(C)C)C2(C)C (stereo partly shown) [compound 4560],6.60 to 7.12
14,CC(C)(C)COC(=O)[C@@H](NC(=O)N[C@H](C(=O)N1C[C@H]2[C@@H]([C@H]1C(=O)NC(CC1CC1)C(=O)C(N)=O)C2(C)C)C(C)(C)C)C(C)(C)C (stereo partly shown) [compound 4368],> 7.12
15,C[C@H](OC(=O)[C@@H](NC(=O)N[C@H](C(=O)N1C[C@H]2[C@@H]([C@H]1C(=O)NC(CC1CCC1)C(=O)C(N)=O)C2(C)C)C(C)(C)C)C(C)(C)C)c1ccccc1 (stereo partly shown) [compound 4385],> 7.12
16,COC(=O)C(C)(C)NC(=O)N[C@H](C(=O)N1C[C@H]2[C@@H]([C@H]1C(=O)NC(CC1CC1)C(=O)C(N)=O)C2(Cl)Cl)C(C)(C)C (stereo partly shown) [compound 4644],< 6.60
17,C=CCNC(=O)C(=O)C(CCC)NC(=O)[C@@H]1[C@@H]2[C@H](CN1C(=O)[C@@H](NC(=O)N[C@H](C(=O)OC(C)(C)C1CC1)C(C)C)C(C)(C)C)C2(C)C (stereo partly shown) [compound 4407],> 7.12
18,CC[C@H](C)[C@H](NC(=O)N[C@H](C(=O)N1C[C@H]2[C@@H]([C@H]1C(=O)NC(CC1CC1)C(=O)C(N)=O)C2(C)C)C(C)(C)C)C(=O)OCc1ccc(OC)cc1 (stereo partly shown) [compound 4520],> 7.12
19,CNC(=O)C(=O)C(CC1CC1)NC(=O)[C@@H]1[C@@H]2[C@H](CN1C(=O)[C@@H](NC(=O)N[C@H](C(=O)OC(C)(C)C)C(C)(C)C)C(C)(C)C)C2(C)C (stereo partly shown) [compound 4489],> 7.12
20,CC[C@H](C)[C@H](NC(=O)N[C@H](C(=O)N1C[C@H]2[C@@H]([C@H]1C(=O)NC(CC1CC1)C(=O)C(N)=O)C2(C)C)C1CCCCC1)C(=O)OC(C)(C)C (stereo partly shown) [compound 4508],> 7.12

# Same assay, conditions: Table 6; read-out: Ki* range
row,SMILES,pKi
1,CC(C)(C)[C@H](NC(=O)NC1(Cc2nccs2)CCCCC1)C(=O)N1C[C@H]2[C@@H]([C@H]1C(=O)NC(CC1CCC1)C(=O)C(N)=O)C2(Cl)Cl (stereo partly shown) [compound 4929],> 7.12
2,CC(c1ccccc1)C(C)(C)NC(=O)N[C@H](C(=O)N1C[C@H]2[C@@H]([C@H]1C(=O)NC(CC1CC1)C(=O)C(N)=O)C2(C)C)C(C)(C)C (stereo partly shown) [compound 4954],> 7.12

# pKi: −log10 of the molar value.
